To fix the notation:
T1: RBFOX1 RRM RbFoxmut (Fox-RRM*) (Homo sapiens, UniProt Q9NWB1 109-208, R118D;E147R;N151S;E152T)
T1 sequence: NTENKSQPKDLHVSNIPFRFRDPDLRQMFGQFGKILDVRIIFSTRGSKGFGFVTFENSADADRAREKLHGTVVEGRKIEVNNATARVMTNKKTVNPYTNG

B1: UCUCUGG (DNA:RNA)
RNA: GGGAGACCGGAAUUCAGAUUGUCCUCUCUGGUUAAAUCCCGUCGUAGCCACCA
DNA 1: CAATCTGAATTCCGGTCTCCC
DNA 2: TGGTGGCTACGACGGGATT
B2: UGGUAAC (DNA:RNA)
RNA: B1 RNA with C26G, U27G, C28U, U29A, G30A, G31C
DNA 1: CAATCTGAATTCCGGTCTCCC
DNA 2: TGGTGGCTACGACGGGATT
B3: UAAUUAC (DNA:RNA)
RNA: B1 RNA with C26A, U27A, C28U, G30A, G31C
DNA 1: CAATCTGAATTCCGGTCTCCC
DNA 2: TGGTGGCTACGACGGGATT
B4: ACUCGUC (DNA:RNA)
RNA: B1 RNA with U25A, U29G, G30U, G31C
DNA 1: CAATCTGAATTCCGGTCTCCC
DNA 2: TGGTGGCTACGACGGGATT
B5: GCACAUG (DNA:RNA)
RNA: B1 RNA with U25G, U27A, U29A, G30U
DNA 1: CAATCTGAATTCCGGTCTCCC
DNA 2: TGGTGGCTACGACGGGATT
B6: CGGGAUG (DNA:RNA)
RNA: B1 RNA with U25C, C26G, U27G, C28G, U29A, G30U
DNA 1: CAATCTGAATTCCGGTCTCCC
DNA 2: TGGTGGCTACGACGGGATT
B7: UUUCUGC (DNA:RNA)
RNA: B1 RNA with C26U, G31C
DNA 1: CAATCTGAATTCCGGTCTCCC
DNA 2: TGGTGGCTACGACGGGATT
B8: ACACACU (DNA:RNA)
RNA: B1 RNA with U25A, U27A, U29A, G30C, G31U
DNA 1: CAATCTGAATTCCGGTCTCCC
DNA 2: TGGTGGCTACGACGGGATT
B9: GUUCGCA (DNA:RNA)
RNA: B1 RNA with U25G, C26U, U29G, G30C, G31A
DNA 1: CAATCTGAATTCCGGTCTCCC
DNA 2: TGGTGGCTACGACGGGATT
B10: UAGGUUU (DNA:RNA)
RNA: B1 RNA with C26A, U27G, C28G, G30U, G31U
DNA 1: CAATCTGAATTCCGGTCTCCC
DNA 2: TGGTGGCTACGACGGGATT
B11: CGGGCUA (DNA:RNA)
RNA: GGGAGACCGGAAUUCAGAUUGUCCCGGGCUAUUAAAUCCCGUCGUAGCCACCA
DNA 1: CAATCTGAATTCCGGTCTCCC
DNA 2: TGGTGGCTACGACGGGATT
B12: CGAAAUG (DNA:RNA)
RNA: B11 RNA with G27A, G28A, C29A, A31G
DNA 1: CAATCTGAATTCCGGTCTCCC
DNA 2: TGGTGGCTACGACGGGATT
B13: ACACUAG (DNA:RNA)
RNA: B1 RNA with U25A, U27A, G30A
DNA 1: CAATCTGAATTCCGGTCTCCC
DNA 2: TGGTGGCTACGACGGGATT
B14: GUGGUAC (DNA:RNA)
RNA: B11 RNA with C25G, G26U, C29U, U30A, A31C
DNA 1: CAATCTGAATTCCGGTCTCCC
DNA 2: TGGTGGCTACGACGGGATT
B15: GACAGAA (DNA:RNA)
RNA: B11 RNA with C25G, G26A, G27C, G28A, C29G, U30A
DNA 1: CAATCTGAATTCCGGTCTCCC
DNA 2: TGGTGGCTACGACGGGATT
B16: GCUGCCG (DNA:RNA)
RNA: B1 RNA with U25G, C28G, U29C, G30C
DNA 1: CAATCTGAATTCCGGTCTCCC
DNA 2: TGGTGGCTACGACGGGATT
B17: AUACGUC (DNA:RNA)
RNA: B11 RNA with C25A, G26U, G27A, G28C, C29G, A31C
DNA 1: CAATCTGAATTCCGGTCTCCC
DNA 2: TGGTGGCTACGACGGGATT
B18: GCAUAGA (DNA:RNA)
RNA: B1 RNA with U25G, U27A, C28U, U29A, G31A
DNA 1: CAATCTGAATTCCGGTCTCCC
DNA 2: TGGTGGCTACGACGGGATT
B19: GGCACGA (DNA:RNA)
RNA: B11 RNA with C25G, G27C, G28A, U30G
DNA 1: CAATCTGAATTCCGGTCTCCC
DNA 2: TGGTGGCTACGACGGGATT
B20: GCCACAU (DNA:RNA)
RNA: B11 RNA with C25G, G26C, G27C, G28A, U30A, A31U
DNA 1: CAATCTGAATTCCGGTCTCCC
DNA 2: TGGTGGCTACGACGGGATT

Residue numbers refer to the chain shown, from its start. This is one part of the list.

This test concerns the target T1, RBFOX1 RRM RbFoxmut (Fox-RRM*). The test can be described thus: EMSA; HiTS-Eq, 1 nM pool, 10 min; buffer printed only for the single-RNA assays: 10 mM Tris pH 7.5, 150 mM NaCl, 3.4 mM EDTA, 0.001% NP-40, 30 C. The following applies: tags: His6 N-terminal (pET28a); label: 5' 32P. Summed up: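 Purified RbFox RRM (wild type or mutant) was equilibrated for 10 min in 50 µL with 1 nM of a 5′-radiolabelled pool of RNA with 7 randomized nucleotides, its flanks annealed to DNA oligonucleotides, across increasing protein concentrations. Free RNA was separated by 8% native PAGE, excised, reverse-transcribed, PCR-barcoded and sequenced on an Illumina HiSeq 2500. Relative association constants came from read-count changes of each variant against the control reaction, normalised to the cognate motif.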
(In EMSA bound probe runs differently from free probe, usually more slowly.)
In the case of B1, the binding signal was 0.105 KA relative to UGCAUGU.
Turning to B2, the binding signal was 0.0853 KA relative to UGCAUGU.
Next, B3: 0.101 KA relative to UGCAUGU; B4: 0.0961 KA relative to UGCAUGU.
As for B5, the binding signal was 0.128 KA relative to UGCAUGU.
As for B6, the binding signal is 0.296 KA relative to UGCAUGU.
Next, B7: 0.0923 KA relative to UGCAUGU.
For the molecule B8, the binding signal was 0.0665 KA relative to UGCAUGU.
Take B9: the binding signal was 0.157 KA relative to UGCAUGU.
In the case of B10, the binding signal was 0.119 KA relative to UGCAUGU.
In the case of B11, the binding signal was 0.106 KA relative to UGCAUGU.
For the molecule B12, the binding signal is 0.101 KA relative to UGCAUGU.
Regarding B13, the binding signal is 0.112 KA relative to UGCAUGU.
On to B14, for which the binding signal is 0.131 KA relative to UGCAUGU.
Next, B15: 0.0707 KA relative to UGCAUGU; B16: 0.0973 KA relative to UGCAUGU.
Turning to B17, the binding signal is 0.0725 KA relative to UGCAUGU.
Regarding B18, the binding signal was 0.132 KA relative to UGCAUGU.
On to B19, for which the binding signal was 0.226 KA relative to UGCAUGU.
In the case of B20 it was 0.0775 KA relative to UGCAUGU.

The values above are taken from publication PMC9911399, “Two distinct binding modes provide the RNA-binding protein RbFox with extraordinary sequence specificity”.
